Enrichment ratio data for 153 variants are collected here from a collection of fitness landscapes (doi:10.1126/science.1257360).

B1: PhoQ; a variant is named by its letters at X, in order, P23837 (parent)
chain: MKKLLRLFFPLSLRVRFLLATAAVVLVLSLAYGMVALIGYSVSFDKTTFRLLRGESNLFYTLAKWENNKLHVELPENIDKQSPTMTLIYDENGQLLWAQRDVPWLMKMIQPDWLKSNGFHEIEADVNDTSLLLSGDHSIQQQLQEVREDDDDAEMTHSVAVNVYPATSRMPKLTIVVVDTIPVELKSSYMVWSWFIYVLSANLLLVIPLLWVAAWWSLRPIEALAKEVRELEEHNRELLNPATTRELTSLVRNLNRLLKSERERYDKYRTTLTDLTHSLKTPLXXLQXXLRSLRSEKMSVSDAEPVMLEQISRISQQIGYYLHRASMRGGTLLSRELHPVAPLLDNLTSALNKVYQRKGVNISLDISPEISFVGEQNDFVEVMGNVLDNACKYCLEFVEISARQTDEHLYIVVEDDGPGIPLSKREVIFDRGQRVDTLRPGQGVGLAVAREITEQYEGKIVAGESMLGGARMEVIFGRQHSAPKDE

The list shows a part of the results.

Variants of B1 are the subject of this assay. The experiment in a line: enrichment ratio after two sorts for PhoP signalling (ratio (wild type AVST 3.29)); higher = more functional. The note with it: with PhoP (E. coli).
For STWD, the enrichment ratio is at most 0.25.

As for LKCT, the enrichment ratio was at most 0.25.

Turning to IRAA, the enrichment ratio was at most 0.25.

For the variant MDSS, the enrichment ratio is at most 0.25.

Consider RLQT, for which the enrichment ratio was at most 0.25.

With NHDR, the enrichment ratio was at most 0.25.

As for QKSF, the enrichment ratio was at most 0.25.

With GNFY, the enrichment ratio is at most 0.25.

As for LNNC, the enrichment ratio is at most 0.25.

For NQID, the enrichment ratio is at most 0.25.

In the case of HKMP, the enrichment ratio is at most 0.25.

For HLSV, the enrichment ratio is at most 0.25.

For RAGK, the enrichment ratio is at most 0.25.

Turning to DEIV, the enrichment ratio was at most 0.25.

On to LRPT, for which the enrichment ratio was at most 0.25.

In the case of ASNK, the enrichment ratio is at most 0.25.

For the variant YPMM, the enrichment ratio was at most 0.25.

For the variant ILQT, the enrichment ratio was at most 0.25.

Consider EIFS, for which the enrichment ratio is at most 0.25.

With VMKL, the enrichment ratio is at most 0.25.

Take NTQY: the enrichment ratio was at most 0.25.

For the variant GRWM, the enrichment ratio was at most 0.25.

With HMYW, the enrichment ratio is at most 0.25.

With NHGH, the enrichment ratio was at most 0.25.

Consider SKEF, for which the enrichment ratio was at most 0.25.

Take SIWY: the enrichment ratio was at most 0.25.

Regarding ARMS, the enrichment ratio came to 1.54.

In the case of PRAR, the enrichment ratio is at most 0.25.

Take EFDC: the enrichment ratio was at most 0.25.

In the case of SGRR, the enrichment ratio was at most 0.25.

Take WQFH: the enrichment ratio was at most 0.25.

For DTWF, the enrichment ratio was at most 0.25.

On to DRPP, for which the enrichment ratio was at most 0.25.

TRFI: the enrichment ratio was at most 0.25.

On to VVTC, for which the enrichment ratio is at most 0.25.

For the variant SLTH, the enrichment ratio turned out to be 5.18.

RSQQ: the enrichment ratio was at most 0.25.

As to SPFI, the enrichment ratio was at most 0.25.

For GRDP, the enrichment ratio is at most 0.25.

Turning to TPCW, the enrichment ratio was at most 0.25.

Consider DKAS, for which the enrichment ratio is at most 0.25.

On to SKNT, for which the enrichment ratio is at most 0.25.

In the case of ELHS, the enrichment ratio was at most 0.25.

As for QREY, the enrichment ratio is at most 0.25.

With VEVN, the enrichment ratio was 1.11.

As to IMHQ, the enrichment ratio was at most 0.25.

PWGP: the enrichment ratio is at most 0.25.

As for ECFM, the enrichment ratio was at most 0.25.

Take NYVM: the enrichment ratio is at most 0.25.

As to ARGN, the enrichment ratio was at most 0.25.

In the case of IWIM, the enrichment ratio was at most 0.25.

As for YQDQ, the enrichment ratio was at most 0.25.

Take PMHF: the enrichment ratio was at most 0.25.

For the variant ASEH, the enrichment ratio was at most 0.25.

IRKQ: the enrichment ratio was at most 0.25.

In the case of VKHQ, the enrichment ratio is at most 0.25.

For the variant NETY, the enrichment ratio is at most 0.25.

With IING, the enrichment ratio was at most 0.25.

Regarding VAHN, the enrichment ratio is at most 0.25.

Regarding HGCG, the enrichment ratio was at most 0.25.

For the variant WHIK, the enrichment ratio was at most 0.25.

On to QIRQ, for which the enrichment ratio was at most 0.25.

As to IRGA, the enrichment ratio is at most 0.25.

As to YHRP, the enrichment ratio was at most 0.25.

On to IGGS, for which the enrichment ratio was at most 0.25.

As to PRNK, the enrichment ratio was at most 0.25.

As for HDRG, the enrichment ratio is at most 0.25.

As to KVYW, the enrichment ratio was at most 0.25.

For the variant YGAM, the enrichment ratio is at most 0.25.

Turning to HFLP, the enrichment ratio is at most 0.25.

In the case of EKAV, the enrichment ratio was at most 0.25.

Regarding WMWS, the enrichment ratio was at most 0.25.

Regarding PFVV, the enrichment ratio was at most 0.25.

With PTVI, the enrichment ratio was at most 0.25.

As to WRHG, the enrichment ratio is at most 0.25.

Turning to EPIE, the enrichment ratio is at most 0.25.

As to NYIH, the enrichment ratio was at most 0.25.

For FNVF, the enrichment ratio is at most 0.25.

For the variant SENA, the enrichment ratio is at most 0.25.

On to MDMQ, for which the enrichment ratio was at most 0.25.

Take YFIP: the enrichment ratio is at most 0.25.

In the case of TYPF, the enrichment ratio is at most 0.25.

Turning to CSLF, the enrichment ratio is 2.21.

For TKSQ, the enrichment ratio was found to be 2.92.

As to YHCT, the enrichment ratio is at most 0.25.

For the variant FHGH, the enrichment ratio was found to be 0.782.

For DNCE, the enrichment ratio is at most 0.25.

In the case of MRKI, the enrichment ratio was at most 0.25.

With LCIN, the enrichment ratio is at most 0.25.

On to NILR, for which the enrichment ratio was at most 0.25.

Consider QSYQ, for which the enrichment ratio was 9.67.

As to SHWK, the enrichment ratio is at most 0.25.

Regarding LLVC, the enrichment ratio is at most 0.25.

For the variant FTRA, the enrichment ratio is at most 0.25.

Take NISS: the enrichment ratio was at most 0.25.

For the variant MWYR, the enrichment ratio was at most 0.25.

Turning to GSPL, the enrichment ratio is at most 0.25.

With HLKC, the enrichment ratio is at most 0.25.

Take QGLE: the enrichment ratio was at most 0.25.

On to KFPS, for which the enrichment ratio is at most 0.25.

With SMCR, the enrichment ratio was determined as 8.61.

With HYYQ, the enrichment ratio was at most 0.25.

On to FLMY, for which the enrichment ratio was at most 0.25.

Consider HRAM, for which the enrichment ratio is at most 0.25.

For TCIE, the enrichment ratio is at most 0.25.

On to LGYP, for which the enrichment ratio is at most 0.25.

Regarding NTNS, the enrichment ratio is at most 0.25.

Consider RMTF, for which the enrichment ratio is at most 0.25.

Turning to WQCL, the enrichment ratio is at most 0.25.

Turning to PKPD, the enrichment ratio was at most 0.25.

As to SNQK, the enrichment ratio was at most 0.25.

With ELEN, the enrichment ratio is at most 0.25.

In the case of NNWT, the enrichment ratio is at most 0.25.

For the variant QDNF, the enrichment ratio is at most 0.25.

Take LRHA: the enrichment ratio is at most 0.25.

Turning to MTTY, the enrichment ratio was at most 0.25.

On to VDHA, for which the enrichment ratio is at most 0.25.

As for RRHR, the enrichment ratio was at most 0.25.

As to ALVW, the enrichment ratio was at most 0.25.

Take PYHD: the enrichment ratio is at most 0.25.

On to NISF, for which the enrichment ratio is at most 0.25.

For LYRP, the enrichment ratio is at most 0.25.

Take FRWY: the enrichment ratio is at most 0.25.

As to SHLL, the enrichment ratio turned out to be 8.92.

Take EYHC: the enrichment ratio was at most 0.25.

With NDAP, the enrichment ratio was at most 0.25.

As for DERT, the enrichment ratio was at most 0.25.

For ESYC, the enrichment ratio is at most 0.25.

Consider NKCV, for which the enrichment ratio is at most 0.25.

For GNFH, the enrichment ratio was at most 0.25.

QVFH: the enrichment ratio is at most 0.25.

In the case of WVHL, the enrichment ratio was at most 0.25.

Regarding VGWA, the enrichment ratio was at most 0.25.

For the variant LARC, the enrichment ratio is at most 0.25.

On to PAYT, for which the enrichment ratio is at most 0.25.

PPHW: the enrichment ratio is at most 0.25.

Regarding QSNC, the enrichment ratio is at most 0.25.

For GLLL, the enrichment ratio worked out at 11.7.

Take MSNN: the enrichment ratio was at most 0.25.

Regarding SVVH, the enrichment ratio turned out to be 2.61.

Turning to MTGY, the enrichment ratio worked out at 14.4.

In the case of WDWH, the enrichment ratio was at most 0.25.

FWAQ: the enrichment ratio is at most 0.25.

As to SKLE, the enrichment ratio is 8.51.

Consider FDRP, for which the enrichment ratio is at most 0.25.

Consider IGPS, for which the enrichment ratio worked out at 0.55.

With RTNG, the enrichment ratio is at most 0.25.

Regarding RKCL, the enrichment ratio was at most 0.25.

As to VNEQ, the enrichment ratio was at most 0.25.

Regarding WDGT, the enrichment ratio is at most 0.25.

With PSYL, the enrichment ratio was at most 0.25.

On to HKLP, for which the enrichment ratio is at most 0.25.

Consider PTWI, for which the enrichment ratio is at most 0.25.
